Measured values from PubChem BioAssay (NCATS).
Inconclusive results, whose numbers are uncertain, are shown with a selection of clear calls. Where the call is inconclusive, the potency comes from a doubtful curve fit. Active and inactive are the calls of the source. Calls come from the whole dose curve; as a rule, active = well fitted curve in the direction sought with a large enough effect; inconclusive = small, poorly fitted or top-dose-only effect, or another doubt; inactive = no such curve, though single readings can be large; an effect the other way counts as inactive or inconclusive.

experiment: BET inhibitor-based combinations targeting novel dependencies in MECOM-rearranged (r) AML: UCSD-AML1 cell line (AID 2202235); details: UCSD-AML1 AML cells viability, CellTiter-Glo, 48 h; series mostly up to 46 µM; note: nearly all actives have a fitted effect of over 40% in size
Outline: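 Activity is given as area under the curve and as Z-AUC, mean-centred within each cell line. It comes from 11-point dose curves normalized to DMSO and empty wells. CellTiter-Glo luminescence was read after 48 hr drug exposure of 500 cells/well.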
Potency is the fitted concentration of half-maximal effect; tags give direction and shape of the fitted curve.

Q: Which Potency does the source give for `CC(C)NC[C@@H](C(=O)N1CCN(c2ncnc3c2[C@H](C)C[C@H]3O)CC1)c1ccc(Cl)cc1` here?
A: inconclusive: 7.42 µM [inhibitor, partial curve]

Q: For `CC(C)Oc1cc(Nc2nc(N[C@@H](C)c3ccc(F)cn3)ncc2Cl)[nH]n1`, which Potency is on record?
A: inconclusive: 3.72 µM [inhibitor, full curve, poor fit]

Q: For `O=C(O)CCC=CCC[C@@H]1[C@H](N2CCCCC2)[C@@H](O)C[C@@H]1OCc1ccc(-c2ccccc2)cc1`, which Potency is on record?
A: inactive

Q: With `COc1cc2nccc(Oc3ccc(NC(=O)NC4CC4)c(Cl)c3)c2cc1C(N)=O` as the compound, how does the Potency read?
A: inconclusive: 8.33 µM [inhibitor, partial curve, poor fit]

Q: For `COc1ccc(C(=O)CC2(O)C(=O)Nc3c(Cl)ccc(Cl)c32)cc1` (stereo not drawn), which Potency is on record?
A: inconclusive: 1.66 µM [inhibitor, full curve, poor fit]

Q: With `COc1c(Cl)cc2c([nH]c3cnccc32)c1NC(=O)c1cccnc1C` as the compound, how does the Potency read?
A: inconclusive: 26.3 µM [inhibitor, single point]

experiment: BET inhibitor-based combinations targeting novel dependencies in MECOM-rearranged (r) AML: AML-191 cell line (AID 2202236; note: nearly all actives have a fitted effect of over 35% in size); details: AML-191 viability, CellTiter-Glo luminescence, 48 h; series mostly up to 46 µM
Outline: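 Cells were plated at 500 per well and exposed to an 11-point dose series of each drug for 48 hr. Viability was measured by CellTiter-Glo luminescence, normalized to DMSO and empty-well controls, and summarized as AUC and per-cell-line Z-AUC.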

Q: Which Potency does the source give for `c1ccc(Cn2c(-c3ccc(OCC(C4CCNCC4)n4c(-c5ccccc5)nc5ccccc54)cc3)nc3ccccc32)cc1` (stereo not drawn) here?
A: inconclusive: 29.5 µM [inhibitor, single point]

Q: For `CCN1CCC(n2cc(CNc3cc(Cl)c4ncc(C#N)c(Nc5ccc(F)c(Cl)c5)c4c3)nn2)CC1`, which Potency is on record?
A: inconclusive: 26.3 µM [inhibitor, single point]

Q: With `C[C@H]1[C@@H](OC(=O)CCC(=O)O)O[C@@H]2O[C@@]3(C)CC[C@@H]4[C@H](C)CC[C@@H]1[C@@]24OO3` as the compound, how does the Potency read?
A: active: 5.25 µM

Q: Which Potency does the source give for `CC(C)NC[C@@H](C(=O)N1CCN(c2ncnc3c2[C@H](C)C[C@H]3O)CC1)c1ccc(Cl)cc1` here?
A: inconclusive: 18.6 µM [inhibitor, partial curve, poor fit]

Q: With `O=C(O)CCC=CCC[C@@H]1[C@H](N2CCCCC2)[C@@H](O)C[C@@H]1OCc1ccc(-c2ccccc2)cc1` as the compound, how does the Potency read?
A: inactive

Q: Which Potency does the source give for `CCCCCN(CCC12CC3CC(CC(C3)C1)C2)C(=O)NCCCc1ccncc1` here?
A: active: 20.9 µM

Q: For `Cc1c(C)c2c(c(C)c1O)CCC(C)(COc1ccc(CC3SC(=O)NC3=O)cc1)O2` (stereo not drawn), which Potency is on record?
A: inactive

Q: For `CCCCCCNC(=O)n1cc(F)c(=O)[nH]c1=O`, which Potency is on record?
A: inconclusive: 9.34 µM [inhibitor, partial curve]

Q: For `O=C(NCC1CN(c2ccc(N3CCOCC3=O)cc2)C(=O)O1)c1ccc(Cl)s1` (stereo not drawn), which Potency is on record?
A: inconclusive: 26.3 µM [inhibitor, single point]

Q: With `CN(C)CCC=C1c2ccccc2C=Cc2ccccc21` as the compound, how does the Potency read?
A: inconclusive: 29.5 µM [inhibitor, single point]

Q: Which Potency does the source give for `CC(C)C[C@H](NC(=O)c1cc2ccccc2s1)C(=O)N1CCN(C(=O)[C@H](CO)NS(=O)(=O)c2ccc(Cl)cc2Cl)CC1` here?
A: inconclusive: 37.2 µM [inhibitor, single point]

Q: With `COc1cc2c(Nc3ccc(Br)cc3F)ncnc2cc1OCC1CCN(C)CC1` as the compound, how does the Potency read?
A: active: 20.9 µM
